{
  "source": "PubChem BioAssay AID588855",
  "about": "(National Center for Advancing Translational Sciences (NCATS), 2011)",
  "note": "Values joined by “and” are separate entries in the source; they are usually repeats but may differ in a detail not shown here. Equal entries are not always repeated. The campaign covered roughly 410,000 compounds. About 5,000 (1.2%) were called active. The shares of active, inactive and inconclusive entries below differ from those in the screen. Calls come from the whole dose curve; as a rule, active = well fitted inhibition curve with a large enough effect; inconclusive = small, poorly fitted or top-dose-only effect; inactive = no such curve, though single readings can be large or run the other way. Where the call is inconclusive, the potency comes from a doubtful curve fit. % is set by controls: 0 for no effect and ±100 for the full control effect; potency is the fitted concentration of half-maximal effect; tags give direction and shape of the fitted curve.",
  "data": [
    {"test": "qHTS for Inhibitors of TGF-b; note: nearly all actives have a fitted effect of over 65% in size", "conditions": "HepG2 CAGA-GFP TGF-b/SMAD3 reporter, GFP fluorescence, 18 h, TGF-beta stimulated, 500 pg/mL final; series mostly up to 46.1 µM; activity, negative = inhibition: at the top concentration", "outline": "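HEPG2 CAGA-GFP cells (1000/well, DMEM with 1% FBS) were pre-incubated 2 h at 37 degrees C, given compound by pin tool, then stimulated with TGF-beta at 500 pg/mL final for 18 h before per-cell GFP fluorescence imaging.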", "values": [
      {"smiles": "CC(C)NC(=O)CN(C(=O)CCC(=O)Nc1ccccn1)c1ccc(F)c(Cl)c1", "Potency": "inconclusive: 3.98 µM [inhibitor, single point]"},
      {"smiles": "CCN(c1ccccc1)S(=O)(=O)c1ccc(Cl)c(NC(=O)Nc2ccc(Cl)cc2C#N)c1", "Potency": "inconclusive: 25.1 µM [inhibitor, single point]"},
      {"smiles": "COc1cc(N=C2C(=O)N3c4c(cccc42)C(C)=CC3(C)C)cc(OC)c1", "Potency": "inconclusive: 15.8 µM [inhibitor, single point]"},
      {"smiles": "CCOC(=O)C1(C)Oc2ccccc2C(C(=O)OC)=C1C(=O)OC", "note": "(stereo unspecified)", "Potency": "inconclusive: 17.8 µM [inhibitor, single point]"},
      {"smiles": "Cc1ccc(NC(=O)CSCC(=O)N2CCN(c3cccc(C(F)(F)F)c3)CC2)cc1", "Potency": "inconclusive: 5.62 µM [inhibitor, single point]"},
      {"smiles": "COCCN(C(=O)COC(=O)c1ccc(Cl)s1)c1c(N)n(Cc2ccccc2)c(=O)[nH]c1=O", "activity, negative = inhibition": "inactive: 5.19%"},
      {"smiles": "O=C(NC(=S)NC1CCCCCC1)c1cncc(Br)c1", "Potency": "inconclusive: 20 µM [inhibitor, single point]"},
      {"smiles": "O=C(c1ccc(S(=O)(=O)NCc2ccco2)cc1)N1CCN(Cc2ccccc2F)CC1", "activity, negative = inhibition": "inactive: 5.47%"},
      {"smiles": "Cc1ccc2c(COC(=O)C34CC5CC(CC(C5)C3)C4)cc(=O)oc2c1", "Potency": "inconclusive: 6.31 µM [inhibitor, partial curve, poor fit]"},
      {"smiles": "CC(C)Cc1nnc(NC(=O)CCC(=O)N2CCN(c3ccccc3)CC2)s1", "activity, negative = inhibition": "inactive: -14.1%"},
      {"smiles": "COc1ccc2cc3cc(C(=O)N4CCN(c5ccccc5F)CC4)oc3nc2c1", "Potency": "inconclusive: 0.631 µM [inhibitor, full curve, poor fit]"},
      {"smiles": "Cc1nc(C(N)=O)nc2ccccc12", "Potency": "inconclusive: 10 µM [inhibitor, partial curve, poor fit]"},
      {"smiles": "O=C(NCc1cccs1)c1ccccc1C(=O)NCc1cccs1", "Potency": "inconclusive: 2.24 µM [inhibitor, partial curve, poor fit]"},
      {"smiles": "O=C(Cn1c(SCCOc2ccc(Cl)cc2)nc2ccccc21)N1CCCCC1", "Potency": "inconclusive: 17.8 µM [inhibitor, single point]"},
      {"smiles": "O=Nc1c(-c2ccccc2)cc2ccccn12", "Potency": "inconclusive: 31.6 µM [inhibitor, single point]"},
      {"smiles": "C=CCOc1ccccc1/C=N/NC(=O)Cc1ccc(C)cc1", "Potency": "inconclusive: 25.1 µM [inhibitor, single point]"},
      {"smiles": "Cc1ccc(NC(=O)CCCSc2ccccc2)cc1S(=O)(=O)N1CCOCC1", "Potency": "inconclusive: 35.5 µM [inhibitor, single point]"},
      {"smiles": "Cc1cccc(N2C(=O)CSC23C(=O)N(CC(=O)NCc2ccccc2Cl)c2ccccc23)c1", "note": "(stereo unspecified)", "activity, negative = inhibition": "inactive: -3.88%"},
      {"smiles": "CCC1(c2ccc(F)cc2)NC(=O)N(CC(=O)N2CCN(S(=O)(=O)c3ccc(C)cc3C)CC2)C1=O", "note": "(stereo unspecified)", "Potency": "inconclusive: 11.2 µM [inhibitor, single point]"},
      {"smiles": "C=CCNc1ncnc2c1ncn2C1OC(CO)C(O)C1O", "note": "(stereo unspecified)", "Potency": "active: 10 µM"},
      {"smiles": "COc1cccc(-c2ccc3ncnc(NCc4cccs4)c3c2)c1", "Potency": "inconclusive: 28.2 µM [inhibitor, single point]"},
      {"smiles": "Cc1ccc(-c2nnc(CSc3nnc(COc4cccc5ccccc45)n3-c3ccccc3)o2)cc1", "Potency": "active: 12.6 µM"},
      {"smiles": "O=C(/C=C/c1cccc([N+](=O)[O-])c1)NCCSCc1ccc(Cl)cc1Cl", "Potency": "active: 12.6 µM"},
      {"smiles": "COc1cc(OC)c2c(-c3ccccc3)cc(=O)oc2c1C(CCN1CCCC(C)C1)c1ccc2c(c1)OCO2", "note": "(stereo unspecified)", "Potency": "inconclusive: 15.8 µM [inhibitor, single point] and inconclusive: 35.5 µM [inhibitor, single point]"},
      {"smiles": "CC1CN(C(=O)CSc2nnc3c(Cl)cc(Cl)cn23)CC(C)O1", "note": "(stereo unspecified)", "Potency": "inconclusive: 0.501 µM [inhibitor, full curve, poor fit]"},
      {"smiles": "Cc1c(C(=O)NCc2cccc([N+](=O)[O-])c2)sc(=O)n1Cc1cccc(F)c1", "activity, negative = inhibition": "inactive: -11.6%"},
      {"smiles": "Cc1ccc2nc(-c3ccccn3)c(NC3CCCC3)n2c1", "Potency": "inconclusive: 35.5 µM [inhibitor, single point]"},
      {"smiles": "COCCNC(=O)c1cc2c(-c3ccccc3F)nn(C)c2s1", "activity, negative = inhibition": "inactive: 10.7%"},
      {"smiles": "COc1cc(NC(=O)c2ccc3c(=O)n(Cc4ccco4)c(=S)[nH]c3c2)cc(OC)c1OC", "Potency": "inconclusive: 35.5 µM [inhibitor, single point]"},
      {"smiles": "Cc1ccc(Cl)c2c1NC(=O)C2(O)CC(=O)c1ccccc1O", "note": "(stereo unspecified)", "Potency": "inconclusive: 10 µM [inhibitor, partial curve, poor fit]"},
      {"smiles": "CCOc1ccc(Nc2nnc(-n3nc(C)cc3C)c3ccccc23)cc1", "Potency": "inconclusive: 7.94 µM [inhibitor, partial curve]"},
      {"smiles": "O=C(Nc1nccs1)c1ccc(COc2ccc(Cl)cc2)o1", "activity, negative = inhibition": "inactive: -12.7%"},
      {"smiles": "COc1ccc(Cl)cc1NC(=O)CN(C)C(=O)CCSc1ccc(C)cc1", "Potency": "inconclusive: 35.5 µM [inhibitor, single point]"},
      {"smiles": "CC(=O)c1cccc(NC(=O)CSc2nc(N3CCCCC3)nc(N3CCCCC3)n2)c1", "activity, negative = inhibition": "inactive: -3.99%"},
      {"smiles": "Cc1ccc(S(=O)(=O)N(Cc2cc3ccc(C)cc3[nH]c2=O)c2ccccc2)cc1", "Potency": "inconclusive: 3.16 µM [inhibitor, single point]"},
      {"smiles": "CCN(C(=O)Cn1cnc2onc(-c3ccc(F)cc3)c2c1=O)c1ccc(OC)cc1", "Potency": "inconclusive: 10 µM [inhibitor, partial curve, poor fit]"},
      {"smiles": "O=C(NCCO)c1ccc2c(c1)S(=O)(=O)c1ccccc1C2=O", "Potency": "inconclusive: 7.08 µM [inhibitor, full curve, poor fit]"},
      {"smiles": "CCCCN(C(=O)c1cccc(S(=O)(=O)N(C)c2ccc(C)cc2)c1)c1c(N)n(CC(C)C)c(=O)[nH]c1=O", "activity, negative = inhibition": "inactive: 5.7%"},
      {"smiles": "COc1cc(Nc2ccccc2Cl)c([N+](=O)[O-])nc1[N+](=O)[O-]", "Potency": "inconclusive: 35.5 µM [inhibitor, single point]"},
      {"smiles": "CC(C)OC(=O)CSc1nnc(Cc2ccccc2)n1Cc1ccco1", "Potency": "inconclusive: 5.62 µM [inhibitor, single point]"},
      {"smiles": "CCOC(=O)CC1(NC(=O)c2cc(COc3ccc(F)c(F)c3)on2)CCCCC1", "Potency": "inconclusive: 22.4 µM [inhibitor, single point]"}
    ]}
  ]
}
